# According to US20260274891A1, “¿ OPIOID RECEPTOR AGONIST AND USE THEREOF” (CHENGDU AODA BIOTECHNOLOGY CO., LTD., priority 2023, published 2026):
# Not every detail of the peptide structures is certain; ends, links or a residue may be inferred. At least one compound was matched to its structure with a doubt left.
# Target: T1, human κ opioid receptor (OPRK1) (Homo sapiens, UniProt P41145)
# T1 construct: expressed in transfected cells; host or cells: CHO-K1
# Assay: Determination of activities of κ receptor agonists: inhibition of forskolin-stimulated cAMP release (HTRF) in stably transfected CHO-K1 cells
# Type: cell-based
# Conditions: for EC50: CHO-K1 cell line stably expressing opioid receptors, forskolin-stimulated cAMP, HTRF; for Relative Activity %: relative to Difelikefalin = 100.0
# In short: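 Stably transfected CHO-K1 cells stimulated with graded agonist concentrations in presence of forskolin (concentration not specified). Inhibition of forskolin-stimulated cAMP read by HTRF as relative light units; EC50 calculated from dose-response.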
# T1 sequence (P41145 whole entry): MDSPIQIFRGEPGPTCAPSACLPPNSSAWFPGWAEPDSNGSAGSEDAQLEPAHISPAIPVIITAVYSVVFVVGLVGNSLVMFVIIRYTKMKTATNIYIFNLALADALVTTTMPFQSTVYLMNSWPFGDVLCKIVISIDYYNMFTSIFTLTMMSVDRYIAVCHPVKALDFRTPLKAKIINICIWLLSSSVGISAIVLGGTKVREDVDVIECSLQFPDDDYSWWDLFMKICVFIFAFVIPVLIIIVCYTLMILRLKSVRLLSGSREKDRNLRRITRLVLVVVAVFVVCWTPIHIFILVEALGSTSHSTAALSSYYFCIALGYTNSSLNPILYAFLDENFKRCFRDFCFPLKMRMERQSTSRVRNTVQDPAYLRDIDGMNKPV
Compound,EC50,Relative Activity %
"CC(C)C[C@@H](NC(=O)[C@@H](Cc1ccc(Br)cc1)NC(=O)[C@H](N)Cc1ccccc1)C(=O)N[C@H](CCCCN)C(=O)N1CCC(N)(C(N)=O)CC1 [Compound 115, D-Phe-D-Phe(4-Br)-D-Leu-D-Lys-4-aminopiperidine-4-carboxamide-NH2]",0.137 nM,441.9%
"CC(C)C[C@@H](NC(=O)[C@@H](Cc1ccc(Br)cc1)NC(=O)[C@H](N)Cc1ccccc1)C(=O)N[C@H](CCCCN)C(=O)N1CCC(N)(C(=O)N[C@@H](CCCCN)C(N)=O)CC1 [Compound 117, D-Phe-D-Phe(4-Br)-D-Leu-D-Lys-4-aminopiperidine-4-carboxamide-Lys-NH2]",0.065 nM,934.2%
"CC(C)C[C@@H](NC(=O)[C@@H](Cc1ccc(Br)cc1)NC(=O)[C@H](N)Cc1ccccc1)C(=O)N[C@H](CCCCN)C(=O)N1CCC(N)(C(=O)N[C@H](CCCCN)C(=O)O)CC1 [Compound 120, D-Phe-D-Phe(4-Br)-D-Leu-D-Lys-4-aminopiperidine-4-carboxamide-D-Lys-OH]",0.0627 nM,968.4%
"CC(C)C[C@@H](NC(=O)[C@@H](Cc1ccc(I)cc1)NC(=O)[C@H](N)Cc1ccccc1)C(=O)N[C@H](CCCCN)C(=O)N1CCC(N)(C(=O)N[C@H](CCCCN)C(=O)O)CC1 [Compound 126, D-Phe-D-Phe(4-I)-D-Leu-D-Lys-4-aminopiperidine-4-carboxamide-D-Lys-OH]",0.0567 nM,1070.9%
"Cc1ccc(C[C@@H](NC(=O)[C@H](N)Cc2ccccc2)C(=O)N[C@H](CC(C)C)C(=O)N[C@H](CCCCN)C(=O)N2CCC(N)(C(=O)N[C@H](CCCCN)C(N)=O)CC2)cc1 [Compound 129, D-Phe-D-Phe(4-Me)-D-Leu-D-Lys-4-aminopiperidine-4-carboxamide-D-Lys-NH2]",0.151 nM,400.8%
"Cc1ccc(C[C@@H](NC(=O)[C@H](N)Cc2ccccc2)C(=O)N[C@H](CC(C)C)C(=O)N[C@H](CCCCN)C(=O)N2CCC(N)(C(=O)N[C@H](CCCCN)C(=O)O)CC2)cc1 [Compound 130, D-Phe-D-Phe(4-Me)-D-Leu-D-Lys-4-aminopiperidine-4-carboxamide-D-Lys-OH]",0.153 nM,397.9%
"CC(C)C[C@@H](NC(=O)[C@@H](Cc1ccc(C(C)C)cc1)NC(=O)[C@H](N)Cc1ccccc1)C(=O)N[C@H](CCCCN)C(=O)N1CCC(N)(C(=O)N[C@@H](CCCCN)C(N)=O)CC1 [Compound 135, D-Phe-D-Phe(4-Ipr)-D-Leu-D-Lys-4-aminopiperidine-4-carboxamide-Lys-NH2]",0.146 nM,415.0%
"CC(C)C[C@@H](NC(=O)[C@@H](Cc1ccc(C(C)C)cc1)NC(=O)[C@H](N)Cc1ccccc1)C(=O)N[C@H](CCCCN)C(=O)N1CCC(N)(C(=O)N[C@@H](CCCCN)C(=O)O)CC1 [Compound 136, D-Phe-D-Phe(4-Ipr)-D-Leu-D-Lys-4-aminopiperidine-4-carboxamide-Lys-OH]",0.149 nM,407.0%
"CC(C)C[C@@H](NC(=O)[C@@H](Cc1ccc(C(C)C)cc1)NC(=O)[C@H](N)Cc1ccccc1)C(=O)N[C@H](CCCCN)C(=O)N1CCC(N)(C(=O)N[C@H](CCCCN)C(=O)O)CC1 [Compound 138, D-Phe-D-Phe(4-Ipr)-D-Leu-D-Lys-4-aminopiperidine-4-carboxamide-D-Lys-OH]",0.146 nM,416.2%
"CC(C)C[C@@H](NC(=O)[C@@H](Cc1ccc(N)cc1)NC(=O)[C@H](N)Cc1ccccc1)C(=O)N[C@H](CCCCN)C(=O)N1CCC(N)(C(=O)N[C@@H](CCCCN)C(N)=O)CC1 [Compound 139, D-Phe-D-Phe(4-NH2)-D-Leu-D-Lys-4-aminopiperidine-4-carboxamide-Lys-NH2]",0.112 nM,540.2%
"CC(C)C[C@@H](NC(=O)[C@@H](Cc1ccc(N)cc1)NC(=O)[C@H](N)Cc1ccccc1)C(=O)N[C@H](CCCCN)C(=O)N1CCC(N)(C(=O)N[C@@H](CCCCN)C(=O)O)CC1 [Compound 140, D-Phe-D-Phe(4-NH2)-D-Leu-D-Lys-4-aminopiperidine-4-carboxamide-Lys-OH]",0.115 nM,528.0%
"CC(C)C[C@@H](NC(=O)[C@@H](Cc1ccc(N)cc1)NC(=O)[C@H](N)Cc1ccccc1)C(=O)N[C@H](CCCCN)C(=O)N1CCC(N)(C(=O)N[C@H](CCCCN)C(=O)O)CC1 [Compound 142, D-Phe-D-Phe(4-NH2)-D-Leu-D-Lys-4-aminopiperidine-4-carboxamide-D-Lys-OH]",0.11 nM,553.5%
"CC(C)C[C@@H](NC(=O)[C@@H](Cc1ccccc1)NC(=O)[C@H](N)Cc1ccccc1)C(=O)N[C@H](CCCCN)C(=O)N1CCC(N)(C(=O)O)CC1 [Difelikefalin, D-Phe-D-Phe-D-Leu-D-Lys-4-caminopiperidine-4-arboxylicacid-OH, reference compound]",,100.0%
